From PubChem BioAssay AID485364 (National Center for Advancing Translational Sciences (NCATS), 2010)
Among all 360,000 compounds or so, about 11,000 (3.1%) were called active. Inconclusive results, whose numbers are uncertain, are shown with a selection of clear calls. Calls come from the whole dose curve; as a rule, active = well fitted inhibition curve with a large enough effect; inconclusive = small, poorly fitted or top-dose-only effect; inactive = no such curve, though single readings can be large or run the other way. No potency is given beside an inconclusive call; the fits are too rough.

These compounds were tested against Schistosoma mansoni thioredoxin glutathione reductase (TGR) (UniProt Q962Y6) (assay: qHTS Assay for the Inhibitors of Schistosoma Mansoni Peroxiredoxins). Settings: purified TGR, DTNB reduction, TNB absorbance 405 nm; series mostly up to 114 µM.
Excerpt: Schistosomiasis is a major neglected tropical disease that currently affects over 200 million. It is caused by different species of flatworms, such as Schistosoma mansoni. Over the last century, drugs to treat the disease have evolved from potassium antimonyl tartrate, artemisinin, oxamniquine, to praziquantel, with praziquantel remaining the universally-used single drug of choice over the past three decades. However, transmission rates have changed little with praziquantel, and there is evidence for the development of drug resistant parasites. Because there is currently no suitable alternative therapy available, there is an urgent need to identify new targets and drugs for schistosomiasis treatment. Thioredoxin glutathione reductase (TGR), one uniquely positioned S. mansoni enzyme, has been identified as a major component of the worms' distinct and compressed antioxidant "firewall". TGR is a multifunctional enzyme that catalyzes the interconversion between reduced and oxidized forms of both glutathione (GSH) and thioredoxins, thus making it an attractive new antiparasitic target. Recently, a quantitative high-throughput screen of the NIH Molecular Libraries Small Molecule Repository (MLSMR, ~71K at the time of the screen in 2007) was performed using an assay that targeted both TGR and peroxiredoxin2 (Prx2, an H2O2-reducing enzymatic component of the S. mansoni redox "firewall") by following the decrease of NADPH fluorescence. […] Additional mechanistic link between exogenous NO donation and parasitic injury for the oxadiazole-2-oxide class of compounds was also expanded and better defined. Although the screen addressed both TGR and Prx2, the assay required post-screen target deconvolution for further characterization of the actives. In addition, the fluorescence assay was also subject to fluorescence interference from compound library members. We have developed a 1536-well-based kinetic HTS assay to address TGR alone. The assay followed the reduction of 5, 5'-dithiobis (2-nitrobenzoic acid) (DTNB) (Ellman's reagent) by NADPH and measured the increase in absorbance at 412 nm of the reaction product, TNB. […] This assay format can be used to screen the current MLSMR collection (with >300K compounds available) to find novel TGR inhibitors. Furoxan is a good choice to serve as a positive control in the primary HTS assay.
Three microliters of reagents (100 uM NADPH and 20 nM TGR or 100 uM NADPH as no-enzyme control) were dispensed into 1,536-well black clear-bottomed plates. Compounds (23 nL) were transferred via Kalypsys pin tool equipped with 1536-pin array (10 nL slotted pins, V&P Scientific, San Diego, CA). The plates were then be incubated for 15 min at room temperature, and 1 uL aliquot of 500 uM NADPH were added, immediately followed by a 1 uL aliquot of 15 mM DTNB to start the reaction. The plate was transferred to a ViewLux high-throughput CCD imager (Perkin-Elmer, Wellesley, MA) where kinetic measurements of the TNB absorbance were acquired using a 405 excitation filter. Throughout the screen, reagent bottles and all liquid lines were made light-tight to minimize reagent degradation. All screening operations were performed on a fully integrated robotic system (Kalypsys, San Diego, CA) containing one RX-130 and two RX-90 anthropomorphic robotic arms (Staubli, Duncan, SC). Library plates were screened starting from the lowest and proceeding to the highest concentration, and a "double-dipping" step of the highest concentration was required to access higher concentrations of compounds. Vehicle-only plates, with DMSO being pin-transferred to the entire column 5-48 compound area, were inserted uniformly at the beginning and the end of each library in order to monitor for and record any shifts in the background, which can be affected by reagent dispensers or loss in enzyme activity overtime. […]
Note: nearly all actives have a fitted effect of over 60% in size.
Potency is the fitted concentration of half-maximal effect; tags give direction and shape of the fitted curve.

Compound | Potency
CC(C)=CCN1CCN(Cc2ccc(Oc3ncccn3)cc2)CC1CCO (stereo not drawn) | inconclusive [inhibitor, single point]
Cc1ccc(-c2c(C(=O)N/N=C/c3cccc(Cl)c3)nnn2-c2nonc2N)cc1 | inactive
Fc1cccc(NC(=S)Nc2cccnc2)c1 | active: 17.8 µM
N#CC1=C(N)Oc2c(ccc3ccccc23)C1c1ccsc1 (stereo not drawn) | inconclusive [inhibitor, partial curve]
CCCCOc1ccccc1C1NC(=O)NC(C)=C1C(=O)OCc1ccco1 (stereo not drawn) | active: 44.7 µM
COc1ccc(NC(=S)N/N=C/c2cccn2Cc2ccc(F)cc2)cc1 | inconclusive [inhibitor, partial curve]
CCCSC1=N/C(=C\c2ccc([N+](=O)[O-])o2)C(=O)S1 | inconclusive [inhibitor, partial curve]
O=C(O)CSc1cc(C(=O)c2cc(F)ccc2O)cn2c(=O)c3c(-c4ccccc4)csc3nc12 | inconclusive [inhibitor, partial curve, poor fit]
COc1ccc(-n2c(CN3CCC(C)CC3)nc3ccc([N+](=O)[O-])cc3c2=O)c(OC)c1 | inconclusive [inhibitor, partial curve]
COC/C=C/C1=CC2=CC(=O)C(C)(OC(=O)CCC(=O)OC)C(=O)C2=CO1 (stereo not drawn) | active: 3.98 µM
CCOc1ccc(S(=O)(=O)NCCSCc2ccco2)cc1 | inconclusive [inhibitor, partial curve]
CN(C)C(CNC(=O)c1ccc(S(=O)(=O)Nc2cccc(C(F)(F)F)c2)cc1)c1ccco1 (stereo not drawn) | inconclusive [inhibitor, partial curve]
CC(C)N1CCc2c(sc(NC(=O)c3ccco3)c2C(N)=O)C1 | active: 50.1 µM
CC(=O)c1sc2nc(-c3ccccc3)cc(C)c2c1N | inconclusive [inhibitor, partial curve]
O=C(/C=C/c1ccc(OC(F)F)cc1)OCC(=O)N1CCc2ccccc21 | inconclusive [inhibitor, partial curve]
O=C1NC(=O)C2(Cc3ccccc3N3CCCC32)C(=O)N1Cc1ccccc1 (stereo not drawn) | inconclusive [inhibitor, full curve]
Cc1ccc(CN(C)C(=O)C2CCN(C(=O)Nc3ccccc3)CC2)o1 | inconclusive [inhibitor, partial curve]
CCOC(=O)c1sc2nccc(N(C)C)c2c1N=CNOCc1c(F)cccc1Cl | inactive
COC(=O)C(CCSC)NC(=O)c1cc2c(n(-c3ccc(C)cc3)c1=O)CCCC2=O (stereo not drawn) | inconclusive [inhibitor, full curve, poor fit]
Nc1nonc1C(=O)N/N=C/c1ccc([N+](=O)[O-])o1 | active: 20 µM
N#Cc1ccc(-c2ccco2)nc1SCc1ccccc1 | inconclusive [inhibitor, partial curve, poor fit]
O=C1NC(c2ccccc2)=C(c2nc3ccccc3s2)C(c2ccccc2)N1 (stereo not drawn) | inconclusive [inhibitor, full curve, poor fit]
COc1cc2c(cc1OC)CC[N+](C)=C2 | inconclusive [inhibitor, partial curve]
Cc1ccc(Cl)cc1N1CCN(c2nc3ccccc3c3nc(-c4cccnc4)nn23)CC1 | inactive
CC1CCCN(C(=O)C2CCN(S(=O)(=O)c3cccs3)CC2)C1 (stereo not drawn) | inactive

Compound | Potency
CCOc1ccccc1CNC(=O)c1ccc(-n2c(C)cc3c2CCC(C)C3)cc1 (stereo not drawn) | inconclusive [inhibitor, full curve, poor fit]
COC(=O)c1sc(NC(=S)NC(=O)c2ccccc2Cl)nc1C | inactive
COc1cccc(NC(=O)CCNC(=O)Cn2cnc3ccccc3c2=O)c1 | inactive
COc1cc(C(CC(=O)NCc2ccccc2Cl)N2Cc3ccccc3C2=O)cc(OC)c1OC (stereo not drawn) | inactive
Cc1cc(C)n(CCNC(=O)CC2C(=O)NCCN2Cc2ccc(C)o2)n1 (stereo not drawn) | active: 39.8 µM
O=C1/C(=C\c2ccc(O)c(O)c2)N=C2CCCCCN12 | inconclusive [inhibitor, partial curve]
CCCNC(=O)CCc1c(C)nc2nc(CNC(=O)c3ccccc3)nn2c1C | inactive
O=C(CC(Nc1ccccc1Cl)C(=O)OCC(=O)c1cccs1)c1ccccc1 (stereo not drawn) | inconclusive [inhibitor, partial curve, poor fit]
O=C(Cc1ccccc1F)Nc1nc(-c2ccc(F)cc2)cs1 | inactive
CCOC(=O)N1CCC(NC(=O)C2CCCN(S(C)(=O)=O)C2)CC1 (stereo not drawn) | inconclusive [inhibitor, full curve, poor fit]
COc1cccc(-c2nc3c(c(SCC(=O)N4CCOCC4)n2)Cc2c(CO)cnc(C)c2O3)c1 | inconclusive [inhibitor, partial curve]
O=C1c2ccccc2-c2onc3c(Oc4ccccc4)cc(O)c1c23 | active: 44.7 µM
COc1ccc(S(=O)(=O)N=C2C=C(C)C(=O)C(C)=C2)cc1 | active: 31.6 µM
COc1ccc(CNC(=O)C2CCN(c3nnc(-n4c(C)ccc4C)s3)CC2)c(OC)c1 | inactive
COc1ccc(-c2ccc(/C=N/NC(=O)Cc3nnc(N)s3)o2)cc1Cl | active: 56.2 µM
Nc1nc(-c2cccc(F)c2)cs1 | inconclusive [inhibitor, partial curve]
COc1cc(NC(=O)CN2CCN(S(=O)(=O)c3ccc(Br)cc3)CC2)cc(OC)c1 | inactive
COc1ccc(N(C(=O)c2snc(C(N)=O)c2N)C(C(=O)NC2CCCC2)c2ccco2)cc1OC (stereo not drawn) | inconclusive [inhibitor, full curve, poor fit]
CC(C)Cc1cc(-c2ccco2)c(C#N)c(N)n1 | active: 35.5 µM
O=S(=O)(NCC(O)COCc1ccco1)c1cccs1 (stereo not drawn) | active: 12.6 µM
COc1cc(C2C(=O)N(C3CCCCC3)CC(=O)N2CCc2ccccc2)ccc1OC(C)C (stereo not drawn) | inactive
CC(C(=O)Nc1cccc([N+](=O)[O-])c1)N1CCN(C/C=C/c2ccccc2)CC1 (stereo not drawn) | inactive
CN(Cc1cn(C)nc1-c1ccccc1F)C1CCOC1 (stereo not drawn) | inactive
Cc1cc(C)c2c(NC(=O)CCl)nn(C)c2n1 | active: 31.6 µM
CSc1nc(=S)n(-c2ccccc2)c(C)c1C(C)=O | active: 39.8 µM

Compound | Potency
COCCN1C(=O)NC(=O)/C(=C\c2ccc(F)cc2)C1=O | inconclusive [inhibitor, full curve, poor fit]
COCCCn1c(=S)[nH]c2c(sc3ccccc32)c1=O | inconclusive [inhibitor, partial curve]
O=C(Nc1ccccc1F)c1ccc(Cn2nc(N3CCN(c4ccccc4)CC3)ccc2=O)o1 | inactive
Cc1cc2cc(CNC(=O)c3ccc(Br)o3)ccc2[nH]1 | active: 39.8 µM
COc1ccccc1OCC(=O)N1CCCC(N2CCN(c3ccc(F)cc3)CC2)C1 (stereo not drawn) | inconclusive [inhibitor, partial curve, poor fit]
CCOC(=O)Nc1ccc2c(C)cc(=O)oc2c1 | inactive
CCCCCn1c(-c2ccco2)nc2nc3ccccc3nc21 | inconclusive [inhibitor, full curve, poor fit]
CC(=O)Nc1ccc(S(=O)(=O)NNc2cccc(C)c2)cc1 | active: 14.1 µM
O=C(NC(=S)Nc1ccc(CN2CCOCC2)cc1)c1ccco1 | active: 31.6 µM
COCCNC(=S)N/N=C(\C)c1ccc(OC)cc1 | inconclusive [inhibitor, partial curve, poor fit]
Cc1ccc(S(=O)(=O)CCSc2n[nH]c(=O)n2-c2ccccc2)cc1 | inconclusive [inhibitor, partial curve]
Cc1ccccc1CNC(=O)C(=O)NCC(c1ccco1)S(=O)(=O)c1cccs1 (stereo not drawn) | inconclusive [inhibitor, partial curve]
Cc1cc(C)c2c(N)c(C(=O)N3CCCCCC3)sc2n1 | inconclusive [inhibitor, partial curve]
Cc1ccc(-c2csc3nc(C)n(-n4c(C)ccc4C)c(=O)c23)o1 | active: 6.31 µM
CCOc1ccccc1CNC(=O)c1ccc(CS(=O)Cc2cccc(Cl)c2)o1 (stereo not drawn) | inconclusive [inhibitor, partial curve]
CC1(C)CC(=O)C=C(NNC(=O)c2cccnc2)C1 | inconclusive [inhibitor, single point]
CC1CN(C2CCN(S(=O)(=O)c3ccc4ccccc4c3)CC2)CC(C)O1 (stereo not drawn) | inconclusive [inhibitor, partial curve]
CN(Cc1ccccc1)CC(O)COc1ccc(CNCCc2cccnc2)cc1 (stereo not drawn) | inconclusive [inhibitor, single point]
Cn1ccnc1C(=O)c1ccc(NN)c([N+](=O)[O-])c1 | inconclusive [inhibitor, full curve]
CCOc1cccc(C2C(C(=O)c3ccco3)=C(O)C(=O)N2c2nnc(C)s2)c1 (stereo not drawn) | inconclusive [inhibitor, partial curve]
O=C1CCCN1CCCNC(=S)Nc1ccc(Cl)cc1Cl | active: 89.1 µM
COc1cccc(CN(C)C(=O)c2cc(-c3cccs3)nc3ccccc23)c1 | inconclusive [inhibitor, full curve, poor fit]
COc1cccc(-c2nc(CS(=O)(=O)CC(=O)NCc3cccc(Cl)c3)c(C)o2)c1 | inconclusive [inhibitor, partial curve]
